These results are taken from PMC6919601, “Identification of Plasmodium dipeptidyl aminopeptidase allosteric inhibitors by high throughput screening” (PLoS ONE, 2019).

Hit rate of the full screen: of about 110,000 compounds, about 230 (0.21%) showed an effect of 50% or more. This is one part of the list.
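Further: 30 min substrate incubation versus DMSO and 10 µM JCP410 controls.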

The test deals with DPAP1 (Plasmodium falciparum, UniProt Q8IIJ9). Kind of test: primary screen, percent inhibition; read by cleavage of a fluorogenic dipeptide substrate; higher = more effect of the substance. More on the design: species or system P. falciparum D10 trophozoite lysates; single well.
Chain of DPAP1 (Q8IIJ9 whole entry, looked up): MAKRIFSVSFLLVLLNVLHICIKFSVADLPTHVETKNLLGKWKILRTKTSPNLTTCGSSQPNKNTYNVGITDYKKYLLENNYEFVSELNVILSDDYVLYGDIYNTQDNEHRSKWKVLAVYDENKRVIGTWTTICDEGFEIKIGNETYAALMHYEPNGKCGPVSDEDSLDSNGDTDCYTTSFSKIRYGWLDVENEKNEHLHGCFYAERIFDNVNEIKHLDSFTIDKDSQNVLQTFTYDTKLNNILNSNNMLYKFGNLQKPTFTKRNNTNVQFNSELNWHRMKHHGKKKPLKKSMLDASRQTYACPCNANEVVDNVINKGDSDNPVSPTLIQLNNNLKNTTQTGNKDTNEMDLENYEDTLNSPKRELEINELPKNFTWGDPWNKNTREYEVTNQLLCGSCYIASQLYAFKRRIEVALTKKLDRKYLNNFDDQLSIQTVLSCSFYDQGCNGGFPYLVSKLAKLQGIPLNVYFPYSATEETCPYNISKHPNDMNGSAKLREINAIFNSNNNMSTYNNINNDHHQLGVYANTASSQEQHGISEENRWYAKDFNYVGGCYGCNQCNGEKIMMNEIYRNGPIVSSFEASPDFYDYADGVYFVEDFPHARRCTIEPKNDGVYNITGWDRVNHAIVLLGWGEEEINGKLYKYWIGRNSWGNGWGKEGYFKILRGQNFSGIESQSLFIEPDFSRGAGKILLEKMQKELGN
As for `Cc1ccccc1S(=O)Cc1ccc(C(=O)N2CCN(C3CCCCC3)CC2)o1` (stereo not drawn), the “% Inhibition @ 10 uM” value turned out to be 4.14%. In the case of `O=C(CC1NC2CCCCC2NC1=O)Nc1ccc2c(c1)OCCO2` (stereo not drawn), the “% Inhibition @ 10 uM” value is 0.843%. As to `COc1ccc(NC2=C(Cl)C(=O)N(Cc3ccccc3)C2=O)cc1`, the “% Inhibition @ 10 uM” value is -0.305%. On to `CC1CC(C)CN(S(=O)(=O)N2CCCC(C(=O)NC(C)c3ccccc3)C2)C1` (stereo not drawn), for which the “% Inhibition @ 10 uM” value was 2.18%.

Take `CN1C(=O)C2(C(C#N)=C(N)OC3=C2C(=O)CCC3)c2ccccc21` (stereo not drawn): the “% Inhibition @ 10 uM” value was -0.413%. With `O=C(CCN1N=C(c2ccccc2)CCC1=O)NCCCN1CCCC1=O`, the “% Inhibition @ 10 uM” value is on record as -2.72%. As for `CCn1c(C(=O)NCc2cccnc2)cc2oc3ccccc3c21`, the figure is -2.17%. Take `Cc1ccc(Oc2nc3c(C)cccn3c(=O)c2/C=C(\C#N)C(=O)N2CCOCC2)cc1`: the “% Inhibition @ 10 uM” value came out at 3.63%.

Regarding `Cc1nn(CC(=O)NC2CCCCCC2)c(=O)c2cccn12`, the “% Inhibition @ 10 uM” value is on record as -9.69%. As for `N#Cc1c(O)nc2c(oc3ccccc32)c1-c1ccccc1`, the “% Inhibition @ 10 uM” value was found to be 6.17%.

With `CCCCO/C(O)=C1/C(C)=NC(=S)NC1c1ccc(N(C)C)cc1` (stereo not drawn), the “% Inhibition @ 10 uM” value is given as 0.345%.

Turning to `CC(C)(C)C(=O)Nc1nc(-c2ccccc2)ns1`, the “% Inhibition @ 10 uM” value is -1.61%. With `O=C1N=C(Nc2ccc(Cl)cc2)S/C1=C\c1ccc(C(=O)O)cc1` the figure was 17.5%; with `CCN1CCN(CCCNC(=O)Cn2ncc3c(C)n(Cc4ccccc4)c(C)c3c2=O)CC1`, 4.4%; with `Cc1nn(C(C)C(=O)NCCc2cccs2)c(=O)c2nn(-c3ccccc3)c(C)c12` (stereo not drawn), -2.87%. Turning to `Cc1ccc(S(=O)(=O)c2cc3c(=O)n4ccccc4nc3n(Cc3ccncc3)c2=N)cc1`, the “% Inhibition @ 10 uM” value was -2.6%. For the molecule `COc1ccc(/C=C(/NC(=O)c2ccco2)C(=O)Nc2ccccc2C)cc1`, the “% Inhibition @ 10 uM” value is given as 3.74%. With `O=C(O)C1CCCCC1C(=O)N1CCCCCC1` (stereo not drawn) the figure was 1.96%; with `CCC(C(=O)NCc1ccccc1)n1c2ccccc2c2cnnc(O)c21` (stereo not drawn), -3.79%; with `COc1ccc(CCN(C(=O)c2ccccc2)C2=CC3CCC(C2)N3C)cc1OC` (stereo not drawn), 3.65%. With `COc1ccc(S(=O)(=O)Nc2cccc(N(C)S(C)(=O)=O)c2)cc1OC` the figure was -3.71%; with `Cc1ccc(C2CC(C(F)(F)F)n3ncc(C(=O)O)c3N2)cc1` (stereo not drawn), -6.41%; with `COc1cccc(C(=O)Nc2ccc(C)c(C)c2)c1`, 0.661%. As for `COc1cccc(-c2nc(CS(=O)(=O)CC(=O)NCc3ccccc3OC)c(C)o2)c1`, the figure is -3.7%; as for `CCOC(=O)c1c(NC(=O)CCNS(=O)(=O)c2ccc(Cl)cc2)sc(C)c1C`, 6.11%; as for `CC(C)Oc1ccc(C(=O)N2CCCc3ccccc32)cc1`, 0.0265%. Turning to `COc1ccc2ncc(S(=O)(=O)c3ccccc3)c(N3CC(C)CC(C)C3)c2c1` (stereo not drawn), the “% Inhibition @ 10 uM” value is listed as -8.02%. As to `Cc1c2cnn(CC(=O)NCCCN3CCCC3=O)c(=O)c2c(C)n1Cc1ccccc1F`, the “% Inhibition @ 10 uM” value was -2.17%. Consider `CCN1CCN(Cc2ccc(SC)cc2)CC1`, for which the “% Inhibition @ 10 uM” value amounted to 2.47%. With `CNC(=O)COc1ccc(-c2nn(C)c(=O)c3ccccc23)cc1`, the “% Inhibition @ 10 uM” value is listed as 3.63%. Regarding `CC1CCN(C(=O)C2CCCCC2C(=O)O)CC1` (stereo not drawn), the “% Inhibition @ 10 uM” value amounted to 2.01%. With `c1coc(CN2CN(c3nc4ccccc4s3)CN(c3nc4ccccc4s3)C2)c1` the figure was 1.91%; with `COc1cc(C=C2C(=O)N(C)C(=O)N(C)C2=O)cc(Br)c1O`, 2.54%.

On to `Cc1cc(C(F)F)nc2sc(C(=O)Nc3ccc4c(c3)OCO4)c(N)c12`, for which the “% Inhibition @ 10 uM” value was 10.8%. As for `Cc1nc2c(c(C)nn2C)c(C)c1CCC(=O)N1CCOCC1`, the figure is -2.45%; as for `O=C(Nc1ccc(-c2ccc([N+](=O)[O-])cc2)cc1)c1cccc([N+](=O)[O-])c1`, -4.31%.

As for `OCC1CCCN(Cc2ccc(Cl)cc2)C1` (stereo not drawn), the “% Inhibition @ 10 uM” value is on record as -0.833%. With `NC(=O)c1ccc(NC(=O)c2ccc(-c3ccccc3)cc2)cc1` the figure was 2.51%; with `CCc1c(C)sc(NC(=O)c2cc(OC)cc(OC)c2)c1C(N)=O`, -1.44%. With `Cc1ccc(OCC(=O)NCc2ccccc2)cc1` the figure was -1.29%; with `O=C1C2C3c4ccccc4C(c4ccccc43)C2C(=O)N1CCN1CCCCC1` (stereo not drawn), -7.27%; with `Cc1ccc(NC(=O)c2c(-c3ccccc3)noc2C)cc1Cl`, -0.865%. With `NC(=O)c1cc(S(=O)(=O)NCC2CCC(C(=O)NC3CCCCC3)CC2)cs1` (stereo not drawn) the figure was -7.06%; with `COc1ccc(CNC(=O)CCCn2c3ccccc3c3cnnc(O)c32)cc1`, -3.79%. In the case of `CCN(c1ccccc1)S(=O)(=O)c1ccc(NC(=O)c2ccco2)cc1`, the “% Inhibition @ 10 uM” value is reported as -5.7%. With `CC1CCCC(C)N1C(=O)Nc1ccccc1` (stereo not drawn) the figure was -1.92%; with `CCN(CC)CCCN(C)C(=O)c1nn(C)c2c1CSc1ccccc1-2`, 3.3%.

Regarding `COc1nsnc1NS(=O)(=O)c1ccc(-n2c(S)nnc2-c2ccc3ccccc3n2)cc1`, the “% Inhibition @ 10 uM” value was determined as 3.93%.

For `Cc1ccc(S(=O)(=O)Nc2ccc(S(=O)(=O)N(C)Cc3ccccc3)cc2)cc1`, the “% Inhibition @ 10 uM” value was 0.889%. As for `O=C(Cn1ncc2c(=O)oc3ccccc3c21)N1CCC2(CC1)OCCO2`, the “% Inhibition @ 10 uM” value is -6.62%.

On to `Cc1ccc(N(CC(O)Cn2c3ccccc3c3ccccc32)S(C)(=O)=O)cc1` (stereo not drawn), for which the “% Inhibition @ 10 uM” value is listed as 8.05%.

Turning to `CN(Cc1ccccc1)C(=O)C1CCN(S(C)(=O)=O)CC1`, the “% Inhibition @ 10 uM” value is -2.8%. With `Cc1ccc(-n2ncc3c(NCC4CCCO4)ncnc32)cc1Cl` (stereo not drawn) the figure was 0.759%; with `CCOc1ccc(/C=C2\N=C(c3ccc(OC)cc3Cl)OC2=O)cc1`, 2.28%. `O=S(=O)(c1ccc2nc(O)ccc2c1)N(CCO)Cc1ccccc1`: the “% Inhibition @ 10 uM” value is -4.18%.

As to `COc1ccc(/C=C(\NC(=O)c2ccco2)C(=O)NCCO)cc1`, the “% Inhibition @ 10 uM” value was 1.01%. With `O=C1NC(=S)N(c2ccc(Cl)cc2Cl)C(=O)/C1=C/c1ccc(Cl)cc1` the figure was 18.2%; with `Cc1c(C(=O)NC2CCCCC2)oc2ccc(S(=O)(=O)N(C)C3CCCCC3)cc12`, 13.3%; with `O=C(CCc1ccccc1)n1nc(-c2cccnc2)nc1NCc1ccccc1`, 0.558%.

In the case of `Cc1ccc(C)c(-n2nnc(-c3nc(-c4ccc5c(c4)OCO5)no3)c2N)c1`, the “% Inhibition @ 10 uM” value was -2.15%.

Take `Cc1cc(SCc2ccccc2C)n2nc(C)nc2n1`: the “% Inhibition @ 10 uM” value was -0.414%. As for `CC1CCN(C(=O)CN2C(=O)c3ccccc3S2(=O)=O)CC1`, the figure is 1.1%; as for `FC(F)(F)c1cccc(N2CCN(Cc3cccnc3)CC2)c1`, -5.41%. As for `CC(C)(C)OC(=O)N[C@@H](CS(=O)(=O)Cc1ccccc1)C(=O)NCC#N`, the figure is -6.56%; as for `COc1cc(Cl)c(S(=O)(=O)n2cnc3cc(C)c(C)cc32)cc1Cl`, -6.44%. As for `Cc1ccc(NC(=O)C2c3ccccc3C(=O)N(C)C2c2cn(C)c3ccccc23)nc1` (stereo not drawn), the figure is 5.74%; as for `COCCNC(=O)CN1N=C(c2ccc(OC)cc2)CCC1=O`, -3.58%. On to `CCCc1nnc(O)c2c1nnn2Cc1ccccc1`, for which the “% Inhibition @ 10 uM” value is -4.91%. As for `c1cnc(NC2CCCCCCC2)nc1`, the “% Inhibition @ 10 uM” value is -5.62%.

Regarding `CC(O)CN(Cc1ccc(Cl)cc1)CC(C)O` (stereo not drawn), the “% Inhibition @ 10 uM” value is -2.34%. As for `Cc1ccc(CNC(=O)CCc2c(C)nc3c4cccnc4nn3c2C)cc1`, the figure is -0.0115%. Take `N#CCNC(=O)[C@H](CSCc1ccccc1)NC(=O)c1ccc(-c2ccccc2)cc1`: the “% Inhibition @ 10 uM” value is on record as -0.214%. As for `Cc1ccc(CN2C(=O)CN(C3CCC(C)CC3)C(=O)C2c2ccc(C)cc2)cc1` (stereo not drawn), the figure is 1.27%; as for `CNS(=O)(=O)c1cn(CC(=O)Nc2nc3ccc(C)cc3s2)cc1S(=O)(=O)NC`, 10.8%. With `Cc1ccccc1Cn1c(=O)n(C(C)C)c(=O)c2oc3ccccc3c21` the figure was 3.8%; with `Cc1nn(CC(=O)N2CCN(C3CCCCC3)CC2)c(=O)c2nn(-c3ccccc3)c(C)c12`, -2.68%; with `CC(=O)c1ccc(NC(=O)c2ccccc2Cl)cc1`, -1.62%. With `Cc1cccc(N(C)C(=O)c2cnoc2C)c1` the figure was -3.45%; with `O=C(NCc1c(O)ccc2ccccc12)c1ccccc1`, -2.66%.

For `O=C(O)C1CC=CCC1C(=O)Nc1ccc(F)cc1` (stereo not drawn), the “% Inhibition @ 10 uM” value was determined as 0.35%. As for `FC(F)Oc1ccc(Cl)cc1C1C=C(c2ccc(Br)s2)Nc2ncnn21` (stereo not drawn), the figure is -1.48%; as for `COc1ccc(C(=O)Nc2ccc3[nH]c(O)nc3c2)cc1`, -0.0953%; as for `Cc1cc(C)c(NS(=O)(=O)c2ccc(NC(=O)c3ccccc3C(=O)O)cc2)c(C)c1`, -2.28%.

Turning to `COc1ccccc1C(=O)Nc1ccc(Cl)c(C(F)(F)F)c1`, the “% Inhibition @ 10 uM” value is -7.02%.

As to `CCn1c2ccccc2c2cc(CNc3ccc(F)c(Cl)c3)ccc21`, the “% Inhibition @ 10 uM” value is given as -1.56%. As for `CC1=C(C(=O)Nc2cccnc2)C(c2cccnc2)n2nc(-c3cccs3)nc2N1` (stereo not drawn), the figure is -4.77%. `CC(C)CNC(=O)C1CCN(S(=O)(=O)c2ccccc2)CC1`: the “% Inhibition @ 10 uM” value is reported as 6.28%. With `CCOC(=O)CN1CCc2cc(OC)c(OC)cc2C1`, the “% Inhibition @ 10 uM” value was 0.605%. As for `c1ccc(CCn2c(-c3ccco3)nc3ccccc32)cc1`, the figure is -7.83%; as for `CCN(CC)C(=O)CSc1nc(-c2ccccc2Cl)nc2c1Cc1c(CO)cnc(C)c1O2`, 8.05%.

`Clc1ccc(-c2noc(CCCOc3ccccc3)n2)cc1`: the “% Inhibition @ 10 uM” value was -1.42%. As for `COc1ccc(CCNC2CC(=O)N(c3ccc(C)cc3)C2=O)cc1` (stereo not drawn), the figure is -1.07%. With `CCCNC(=O)N1Cc2ccccc2-n2cccc2C1c1ccccc1` (stereo not drawn) the figure was -1.32%; with `Cc1ccccc1C(=O)Nc1ccc(CC#N)cc1`, -3.72%; with `O=C(Nc1c(C(=O)N2CCN(CCO)CC2)cnn1-c1ccccc1Cl)c1ccco1`, -4.72%. On to `CCOc1nc(-c2ccc(C)cc2)ccc1-c1noc(CC)n1`, for which the “% Inhibition @ 10 uM” value was 2.1%. In the case of `NS(=O)(=O)c1ccc(CCNC(=O)c2nc(S(=O)(=O)Cc3ccccc3)ncc2Cl)cc1`, the “% Inhibition @ 10 uM” value is 7.04%. With `COc1ccc(CC(=O)Nc2ccccc2F)cc1` the figure was -0.856%; with `Cc1cc(/C=C2\C(=N)N3N=C(C(C)C)SC3=NC2=O)c(C)n1-c1ccc(F)cc1`, 1.96%.
